# In all, about 81,000 sequences were measured (“one-hybrid fitness for binding NBS DNA”: median about -0.1, highest 2% from about 0.36 on). This is one part of the list.
# B1: Caulobacter ParB omega fusion; a variant is named by its letters at X, in order, B8GW30 (parent)
# chain: MESVVVGEPGMSEGRRGLGRGLSALLGEVDAAPAQAPGEQLGGSREAPIEILQRNPDQPRRTFREEDLEDLSNSIREKGVLQPILVRPSPDTAGEYQIVAGERAWRAAQRAGLKTVPIMVRELDDLAVLEIGIIENVQRADLNVLEEALSYKVLMEKFERTQENIAQTIGKSXSHVANXMRLLXLPDEVQSYLVSGELTAXHARAIAAAADPVALAKQIIEGGLSVRETEALARKAPNLSAGKSKGGRPPRVKDTDTQALESDLSSVLGLDVSIDHRGSTGTLTITYATLEQLDDLCNRLTRGI
# Variants of: B1
# Assay: one-hybrid fitness for binding NBS DNA (the Noc-binding site; scaled: cognate 1, non-cognate 0); higher = stronger binding
# Conditions: with NBS DNA site
# Method in brief: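 Fitness is the rescaled log change in variant-to-wild-type read ratio, measured by Illumina sequencing of plasmids before and after bacterial one-hybrid selection. The scale puts cognate at 1 and non-cognate at 0. Selection of Caulobacter ParB libraries, four specificity codons randomised, took place in E. coli USO with a HIS3 reporter, site 19 bp from the promoter, over 48 hours at 37°C on M9-minus-histidine with 0.1 mM IPTG and 5 mM 3-AT.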
row,Variant,one-hybrid fitness for binding NBS DNA
1,YKRR,0.316
2,MRAC,≤ 0.2
3,PILA,≤ 0.2
4,SGHR,≤ 0.2
5,MQRT,≤ 0.2
6,DTAA,≤ 0.2
7,FAIS,≤ 0.2
8,MCPC,≤ 0.2
9,FTTV,≤ 0.2
10,RSPH,≤ 0.2
11,HSIN,≤ 0.2
12,DQVT,≤ 0.2
13,NCML,≤ 0.2
14,QTPN,≤ 0.2
15,HGRY,≤ 0.2
16,AWQC,≤ 0.2
17,FNNT,≤ 0.2
18,SDEF,≤ 0.2
19,KRFA,0.277
20,GAHH,≤ 0.2
21,GHRW,≤ 0.2
22,PDCM,≤ 0.2
23,DRKY,≤ 0.2
24,NVQF,≤ 0.2
25,HYPI,≤ 0.2

row,Variant,one-hybrid fitness for binding NBS DNA
1,WTKK,≤ 0.2
2,HDPA,≤ 0.2
3,TDHH,≤ 0.2
4,PEQR,≤ 0.2
5,QWTT,≤ 0.2
6,SHTL,≤ 0.2
7,QMCD,≤ 0.2
8,MYHP,≤ 0.2
9,GNRM,≤ 0.2
10,TRCV,≤ 0.2
11,STEA,≤ 0.2
12,CTQL,≤ 0.2
13,AVSG,≤ 0.2
14,VNWG,≤ 0.2
15,VWKV,≤ 0.2
16,QKIG,≤ 0.2
17,QHSN,≤ 0.2
18,QSAA,0.273
19,AHCV,≤ 0.2
20,GGRQ,≤ 0.2
21,QSNM,≤ 0.2
22,HRPN,≤ 0.2
23,NQQS,≤ 0.2
24,MMRS,≤ 0.2
25,TIHD,≤ 0.2

row,Variant,one-hybrid fitness for binding NBS DNA
1,ELWR,≤ 0.2
2,EAPY,≤ 0.2
3,TVQL,≤ 0.2
4,ESTS,≤ 0.2
5,YPLF,≤ 0.2
6,DMMG,≤ 0.2
7,YGRC,≤ 0.2
8,KRET,0.501
9,TEEC,≤ 0.2
10,GVWN,≤ 0.2
11,WGRY,≤ 0.2
12,HNLS,≤ 0.2
13,TYNS,≤ 0.2
14,TSTR,≤ 0.2
15,SRMW,≤ 0.2
16,VNNI,≤ 0.2
17,QAVY,≤ 0.2
18,YGVR,≤ 0.2
19,QAMA,≤ 0.2
20,DNPC,≤ 0.2
21,HLST,≤ 0.2
22,CSGG,≤ 0.2
23,ESNS,≤ 0.2
24,QPCV,≤ 0.2
25,HDQT,≤ 0.2

row,Variant,one-hybrid fitness for binding NBS DNA
1,AFTW,≤ 0.2
2,HKMM,≤ 0.2
3,YAPR,≤ 0.2
4,YQTA,≤ 0.2
5,PCPS,≤ 0.2
6,TRST,0.323
7,QDLD,≤ 0.2
8,PYTI,≤ 0.2
9,QHKA,0.597
10,LGMY,≤ 0.2
11,CKAT,≤ 0.2
12,YCHW,≤ 0.2
13,RGCG,≤ 0.2
14,QCYI,≤ 0.2
15,IFWS,≤ 0.2
16,NIYS,≤ 0.2
17,KSPY,≤ 0.2
18,VLKR,≤ 0.2
19,RMCV,≤ 0.2
20,QTHQ,0.307
21,TGAP,≤ 0.2
22,SQDV,≤ 0.2
23,CCAD,≤ 0.2
24,TGKM,≤ 0.2
25,VKLI,≤ 0.2

row,Variant,one-hybrid fitness for binding NBS DNA
1,MSEA,≤ 0.2
2,QQMK,≤ 0.2
3,QVRA,0.315
4,TVCI,≤ 0.2
5,MREA,≤ 0.2
6,RQWR,0.244
7,PSGQ,≤ 0.2
8,PSKA,≤ 0.2
9,TPFV,≤ 0.2
10,NRSV,≤ 0.2
11,RPTA,≤ 0.2
12,HNYR,≤ 0.2
13,WILR,≤ 0.2
14,RTTG,≤ 0.2
15,MLHT,≤ 0.2
16,DEHS,≤ 0.2
17,PMPR,≤ 0.2
18,SSMP,≤ 0.2
19,LPMI,≤ 0.2
20,ADSR,≤ 0.2
21,CSAC,≤ 0.2
22,TMSD,≤ 0.2
23,PGYG,≤ 0.2
24,AGTN,≤ 0.2
25,YEAS,≤ 0.2

row,Variant,one-hybrid fitness for binding NBS DNA
1,YKPK,≤ 0.2
2,SDDM,≤ 0.2
3,VWQT,≤ 0.2
4,MNHR,≤ 0.2
5,TSLG,≤ 0.2
6,VVFN,≤ 0.2
7,FTLD,≤ 0.2
8,NMYE,≤ 0.2
9,GQPV,≤ 0.2
10,TNAP,≤ 0.2
11,KTQG,≤ 0.2
12,KDAR,≤ 0.2
13,STNE,≤ 0.2
14,QKSV,≤ 0.2
15,MTTF,≤ 0.2
16,GYAS,≤ 0.2
17,RFFG,≤ 0.2
18,AERS,≤ 0.2
19,YGSY,≤ 0.2
20,KNQS,≤ 0.2
21,KWEI,≤ 0.2
22,GCCT,≤ 0.2
23,QWGF,≤ 0.2
24,HVQG,≤ 0.2
25,LVAG,≤ 0.2

row,Variant,one-hybrid fitness for binding NBS DNA
1,QRCF,0.275
2,RFQT,0.242
3,MYPS,≤ 0.2
4,PSQP,≤ 0.2
5,CLCC,≤ 0.2
6,RCEK,≤ 0.2
7,HMSV,≤ 0.2
8,IRCM,≤ 0.2
9,ARNR,≤ 0.2
10,RWSW,≤ 0.2
11,RPNP,≤ 0.2
12,GRSV,≤ 0.2
13,NNIG,≤ 0.2
14,NHWR,≤ 0.2
15,CNRE,≤ 0.2
16,ASVL,≤ 0.2
17,RFAG,≤ 0.2
18,QTHI,0.228
19,RPNN,≤ 0.2
20,CDDA,≤ 0.2
21,DPHC,≤ 0.2
22,NTYD,≤ 0.2
23,RWGP,≤ 0.2
24,KPAT,≤ 0.2
25,QWMR,≤ 0.2

row,Variant,one-hybrid fitness for binding NBS DNA
1,FKAC,≤ 0.2
2,QTVY,≤ 0.2
3,FTVP,≤ 0.2
4,NYYS,≤ 0.2
5,PTGG,≤ 0.2
6,QCLD,≤ 0.2
7,ALWG,≤ 0.2
8,QNLM,≤ 0.2
9,GPHD,≤ 0.2
10,MGSD,≤ 0.2
11,CGLG,≤ 0.2
12,VASS,≤ 0.2
13,RLDL,≤ 0.2
14,QPPW,≤ 0.2
15,TQPY,≤ 0.2
16,LRHY,≤ 0.2
17,GMPS,≤ 0.2
18,IKVE,≤ 0.2
19,YMPM,≤ 0.2
20,SWIL,≤ 0.2

# Source: a collection of fitness landscapes (doi:10.1016/j.celrep.2020.107928)
